{
  "source": "patent US6861390B2",
  "about": "“Derivatives of UK-2A” (priority 2001, dated 2005)",
  "system": "Plasmopara viticola (PLASVI)",
  "assay": "whole plant or invertebrate",
  "details": "24 h, read-out: T4 PLASVI in vivo 1 Day Protectant, control of fungal infection",
  "excerpt": "A blank space indicates not tested.",
  "data": [
    {"smiles": "COc1ccnc(C(=O)N[C@H]2COC(=O)[C@H](Cc3ccccc3)[C@@H](OC(=O)C(C)C)[C@H](C)OC2=O)c1OCOC(=O)C1CCCO1", "note": "(some centres unmarked) [Compound 34]", "values": [
      {"measurement": "pest or weed control at 100 ppm", "result": "< 25", "unit": "%"}
    ]},
    {"smiles": "COCCOC(=O)OCOc1c(OC)ccnc1C(=O)N[C@H]1COC(=O)[C@H](Cc2ccccc2)[C@@H](OC(=O)C(C)C)[C@H](C)OC1=O", "note": "[Compound 48]", "values": [
      {"measurement": "pest or weed control at 100 ppm", "result": "< 25", "unit": "%"}
    ]},
    {"smiles": "CCOC(C)C(=O)OCOc1c(OC)ccnc1C(=O)N[C@H]1COC(=O)[C@H](Cc2ccccc2)[C@@H](OC(=O)C(C)C)[C@H](C)OC1=O", "note": "(some centres unmarked) [Compound 68]", "values": [
      {"measurement": "pest or weed control at 100 ppm", "result": "< 25", "unit": "%"}
    ]},
    {"smiles": "CCCCOCC(=O)OCOc1c(OC)ccnc1C(=O)N[C@H]1COC(=O)[C@H](Cc2ccccc2)[C@@H](OC(=O)C(C)C)[C@H](C)OC1=O", "note": "[Compound 37]", "values": [
      {"measurement": "pest or weed control at 100 ppm", "result": "< 25", "unit": "%"}
    ]},
    {"smiles": "COc1ccnc(C(=O)N[C@H]2COC(=O)[C@H](Cc3ccccc3)[C@@H](OC(=O)C(C)C)[C@H](C)OC2=O)c1OCOC(=O)C(C)OC", "note": "(some centres unmarked) [Compound 67]", "values": [
      {"measurement": "pest or weed control at 100 ppm", "result": "< 25", "unit": "%"}
    ]},
    {"smiles": "COc1ccnc(C(=O)N[C@H]2COC(=O)[C@H](Cc3ccccc3)[C@@H](OC(=O)C(C)C)[C@H](C)OC2=O)c1OCOC(=O)COC(C)C", "note": "[Compound 36]", "values": [
      {"measurement": "pest or weed control at 100 ppm", "result": "< 25", "unit": "%"}
    ]},
    {"smiles": "COc1ccnc(C(=O)N[C@H]2COC(=O)[C@H](Cc3ccccc3)[C@@H](OC(=O)C(C)C)[C@H](C)OC2=O)c1OCOC(C)=O", "note": "[Compound 20]", "values": [
      {"measurement": "pest or weed control at 100 ppm", "result": "< 25", "unit": "%"}
    ]},
    {"smiles": "COCC(=O)OCOc1c(OC)ccnc1C(=O)N[C@H]1COC(=O)[C@H](Cc2ccccc2)[C@@H](OCC(C)C)[C@H](C)OC1=O", "note": "[Compound 58]", "values": [
      {"measurement": "pest or weed control at 100 ppm", "result": "25 to 74", "unit": "%"}
    ]},
    {"smiles": "COCC(C)OCOc1c(OC)ccnc1C(=O)N[C@H]1COC(=O)[C@H](Cc2ccccc2)[C@@H](OC(=O)C(C)C)[C@H](C)OC1=O", "note": "(some centres unmarked) [Compound 12]", "values": [
      {"measurement": "pest or weed control at 100 ppm", "result": "75 to 100", "unit": "%"}
    ]},
    {"smiles": "COc1ccnc(C(=O)N[C@H]2COC(=O)[C@H](Cc3ccccc3)[C@@H](OC(=O)C(C)C)[C@H](C)OC2=O)c1OCOC(=O)C(C)C", "note": "[Compound 23]", "values": [
      {"measurement": "pest or weed control at 100 ppm", "result": "75 to 100", "unit": "%"}
    ]},
    {"smiles": "CCCOCOc1c(OC)ccnc1C(=O)N[C@H]1COC(=O)[C@H](Cc2ccccc2)[C@@H](OC(=O)C(C)C)[C@H](C)OC1=O", "note": "[Compound 6]", "values": [
      {"measurement": "pest or weed control at 100 ppm", "result": "< 25", "unit": "%"}
    ]},
    {"smiles": "COc1ccnc(C(=O)N[C@H]2COC(=O)[C@H](Cc3ccccc3)[C@@H](OCC(C)C)[C@H](C)OC2=O)c1OCOC(=O)C1CC1", "note": "[Compound 56]", "values": [
      {"measurement": "pest or weed control at 100 ppm", "result": "25 to 74", "unit": "%"}
    ]},
    {"smiles": "COc1ccnc(C(=O)N[C@H]2COC(=O)[C@H](Cc3ccccc3)[C@@H](OC(=O)C(C)C)[C@H](C)OC2=O)c1OCOC(=O)C(C)(C)C", "note": "[Compound 24]", "values": [
      {"measurement": "pest or weed control at 100 ppm", "result": "< 25", "unit": "%"}
    ]},
    {"smiles": "CCCO[C@H]1[C@H](C)OC(=O)[C@@H](NC(=O)c2nccc(OC)c2OCOC(=O)CCC)COC(=O)[C@@H]1Cc1ccccc1", "note": "[Compound 64]", "values": [
      {"measurement": "pest or weed control at 100 ppm", "result": "75 to 100", "unit": "%"}
    ]},
    {"smiles": "COc1ccnc(C(=O)N[C@H]2COC(=O)[C@H](Cc3ccccc3)[C@@H](OCC(C)C)[C@H](C)OC2=O)c1OCOCC(C)C", "note": "[Compound 65]", "values": [
      {"measurement": "pest or weed control at 100 ppm", "result": "< 25", "unit": "%"}
    ]},
    {"smiles": "COCCC(=O)OCOc1c(OC)ccnc1C(=O)N[C@H]1COC(=O)[C@H](Cc2ccccc2)[C@@H](OCC(C)C)[C@H](C)OC1=O", "note": "[Compound 54]", "values": [
      {"measurement": "pest or weed control at 100 ppm", "result": "75 to 100", "unit": "%"}
    ]},
    {"smiles": "CCC(C)OCC(=O)OCOc1c(OC)ccnc1C(=O)N[C@H]1COC(=O)[C@H](Cc2ccccc2)[C@@H](OC(=O)C(C)C)[C@H](C)OC1=O", "note": "(some centres unmarked) [Compound 39]", "values": [
      {"measurement": "pest or weed control at 100 ppm", "result": "< 25", "unit": "%"}
    ]},
    {"smiles": "COCCC(=O)OCOc1c(OC)ccnc1C(=O)N[C@H]1COC(=O)[C@H](Cc2ccccc2)[C@@H](OC(=O)C(C)C)[C@H](C)OC1=O", "note": "[Compound 27]", "values": [
      {"measurement": "pest or weed control at 100 ppm", "result": "25 to 74", "unit": "%"}
    ]},
    {"smiles": "CCCO[C@H]1[C@H](C)OC(=O)[C@@H](NC(=O)c2nccc(OC)c2OCOC(=O)C2CCCC2)COC(=O)[C@@H]1Cc1ccccc1", "note": "[Compound 62]", "values": [
      {"measurement": "pest or weed control at 100 ppm", "result": "< 25", "unit": "%"}
    ]},
    {"smiles": "C=CCO[C@H]1[C@H](C)OC(=O)[C@@H](NC(=O)c2nccc(OC)c2OCOC(C)=O)COC(=O)[C@@H]1Cc1ccccc1", "note": "[Compound 52]", "values": [
      {"measurement": "pest or weed control at 100 ppm", "result": "25 to 74", "unit": "%"}
    ]},
    {"smiles": "COc1ccnc(C(=O)N[C@H]2COC(=O)[C@H](Cc3ccccc3)[C@@H](OC(=O)C(C)C)[C@H](C)OC2=O)c1OCOCCOC(C)=O", "note": "[Compound 17]", "values": [
      {"measurement": "pest or weed control at 100 ppm", "result": "25 to 74", "unit": "%"}
    ]},
    {"smiles": "COc1ccnc(C(=O)N[C@H]2COC(=O)[C@H](Cc3ccccc3)[C@@H](OC(=O)C(C)C)[C@H](C)OC2=O)c1OCOC(=O)COCC(C)C", "note": "[Compound 38]", "values": [
      {"measurement": "pest or weed control at 100 ppm", "result": "< 25", "unit": "%"}
    ]},
    {"smiles": "COc1ccnc(C(=O)N[C@H]2COC(=O)[C@H](Cc3ccccc3)[C@@H](OC(=O)C(C)C)[C@H](C)OC2=O)c1OCOCC(C)C", "note": "[Compound 9]", "values": [
      {"measurement": "pest or weed control at 100 ppm", "result": "< 25", "unit": "%"}
    ]},
    {"smiles": "COc1ccnc(C(=O)N[C@H]2COC(=O)[C@H](Cc3ccccc3)[C@@H](OC(=O)C(C)C)[C@H](C)OC2=O)c1OC(C)OC(C)=O", "note": "(some centres unmarked) [Compound 25]", "values": [
      {"measurement": "pest or weed control at 100 ppm", "result": "25 to 74", "unit": "%"}
    ]},
    {"smiles": "COc1ccnc(C(=O)N[C@H]2COC(=O)[C@H](Cc3ccccc3)[C@@H](OC(=O)C(C)C)[C@H](C)OC2=O)c1OCOC(=O)COc1ccccc1", "note": "[Compound 42]", "values": [
      {"measurement": "pest or weed control at 100 ppm", "result": "< 25", "unit": "%"}
    ]},
    {"smiles": "CCOCC(=O)OCOc1c(OC)ccnc1C(=O)N[C@H]1COC(=O)[C@H](Cc2ccccc2)[C@@H](OCSC)[C@H](C)OC1=O", "note": "[Compound 72]", "values": [
      {"measurement": "pest or weed control at 100 ppm", "result": "< 25", "unit": "%"}
    ]},
    {"smiles": "COc1ccnc(C(=O)N[C@H]2COC(=O)[C@H](Cc3ccccc3)[C@@H](OC(=O)C(C)C)[C@H](C)OC2=O)c1OCSc1ccccc1", "note": "[Compound 19]", "values": [
      {"measurement": "pest or weed control at 100 ppm", "result": "< 25", "unit": "%"}
    ]},
    {"smiles": "COc1ccnc(C(=O)N[C@H]2COC(=O)[C@H](Cc3ccccc3)[C@@H](OCC(C)C)[C@H](C)OC2=O)c1OCOC(C)=O", "note": "[Compound 49]", "values": [
      {"measurement": "pest or weed control at 100 ppm", "result": "< 25", "unit": "%"}
    ]},
    {"smiles": "COc1ccnc(C(=O)N[C@H]2COC(=O)[C@H](Cc3ccccc3)[C@@H](OC(=O)C(C)C)[C@H](C)OC2=O)c1OCOC(=O)C1CC1", "note": "[Compound 26]", "values": [
      {"measurement": "pest or weed control at 100 ppm", "result": "< 25", "unit": "%"}
    ]},
    {"smiles": "COCCOC(C)C(=O)OCOc1c(OC)ccnc1C(=O)N[C@H]1COC(=O)[C@H](Cc2ccccc2)[C@@H](OC(=O)C(C)C)[C@H](C)OC1=O", "note": "(some centres unmarked) [Compound 66]", "values": [
      {"measurement": "pest or weed control at 100 ppm", "result": "< 25", "unit": "%"}
    ]},
    {"smiles": "CCCO[C@H]1[C@H](C)OC(=O)[C@@H](NC(=O)c2nccc(OC)c2OCOC(=O)CCOC)COC(=O)[C@@H]1Cc1ccccc1", "note": "[Compound 55]", "values": [
      {"measurement": "pest or weed control at 100 ppm", "result": "25 to 74", "unit": "%"}
    ]},
    {"smiles": "COCCOCC(=O)OCOc1c(OC)ccnc1C(=O)N[C@H]1COC(=O)[C@H](Cc2ccccc2)[C@@H](OC(=O)C(C)C)[C@H](C)OC1=O", "note": "[Compound 40]", "values": [
      {"measurement": "pest or weed control at 100 ppm", "result": "25 to 74", "unit": "%"}
    ]},
    {"smiles": "COCCOCCOCC(=O)OCOc1c(OC)ccnc1C(=O)N[C@H]1COC(=O)[C@H](Cc2ccccc2)[C@@H](OC(=O)C(C)C)[C@H](C)OC1=O", "note": "[Compound 75]", "values": [
      {"measurement": "pest or weed control at 100 ppm", "result": "25 to 74", "unit": "%"}
    ]},
    {"smiles": "COc1ccnc(C(=O)N[C@H]2COC(=O)[C@H](Cc3ccccc3)[C@@H](OC(=O)C(C)C)[C@H](C)OC2=O)c1OCOC(=O)COCC(F)(F)F", "note": "[Compound 70]", "values": [
      {"measurement": "pest or weed control at 100 ppm", "result": "< 25", "unit": "%"}
    ]},
    {"smiles": "COc1ccnc(C(=O)N[C@H]2COC(=O)[C@H](Cc3ccccc3)[C@@H](OC(=O)C(C)C)[C@H](C)OC2=O)c1OCOC(=O)C1CCCC1", "note": "[Compound 33]", "values": [
      {"measurement": "pest or weed control at 100 ppm", "result": "25 to 74", "unit": "%"}
    ]},
    {"smiles": "COCCOC(=O)OCOc1c(OC)ccnc1C(=O)N[C@H]1COC(=O)[C@H](Cc2ccccc2)[C@@H](OCC(C)C)[C@H](C)OC1=O", "note": "[Compound 57]", "values": [
      {"measurement": "pest or weed control at 100 ppm", "result": "25 to 74", "unit": "%"}
    ]},
    {"smiles": "COc1ccnc(C(=O)N[C@H]2COC(=O)[C@H](Cc3ccccc3)[C@@H](OC(=O)C(C)C)[C@H](C)OC2=O)c1OCOC(C)(C)C", "note": "[Compound 8]", "values": [
      {"measurement": "pest or weed control at 100 ppm", "result": "< 25", "unit": "%"}
    ]},
    {"smiles": "CCOCC(=O)OCOc1c(OC)ccnc1C(=O)N[C@H]1COC(=O)[C@H](Cc2ccccc2)[C@@H](OC(=O)C(C)C)[C@H](C)OC1=O", "note": "[Compound 31]", "values": [
      {"measurement": "pest or weed control at 100 ppm", "result": "75 to 100", "unit": "%"}
    ]}
  ]
}
